The text below walks through data of the RNAGym collection of RNA variant scans (doi:10.7554/elife.90254).

The chains are these.
B1: LINE1-mini (parent)
chain: GGCAGAGCUCAACACAGCGUGGCAAAGUGGCUGUGGCUAGACUGCC

Read counts are not given, so values of variants with three or more changes are uncertain.

In the series the parent is B1. Description: self-cleavage, relative activity (ratio to wild type); higher = more cleavage; in vitro, sequencing; the parent is a self-cleaving ribozyme.
For A6C A14C G44U, the self-cleavage is 0.09.
Next, G5U A26C C31A G40C: 0.02.
Next, G5C G27U G36C A41C: 0.04; G5U A12U A14G U34G C42G: 0.01; A6C C8A C15U A16G C23A C31A: 0.12.
Next, G5U C10A A11G G40C: 0.01; G5U C18A U32C C45G C46U: 0.03.
As to A6C A12G A39C A41G, the self-cleavage stood at 0.16.
With A6C A14G G40A U43C the figure was 0.03; with A6C A14U C15G A16C, 0.07.
With G5U G22C A41U G44U the figure was 0.03.
Next, G5U A26U U32C: 0.03.
G5U G40U C42A: the self-cleavage is 0.07.
As for G5U C8A G29A U43C G44A, the self-cleavage came out at 0.08.
Next, G5U C18U U34G: 0; G5U C31A G40A: 0.06.
With G5U A24C G30U C42G the figure was 0.03.
With A6C A12G G21A U38G the figure was 0.01; with G5U A16U G35C C45U, 0.04; with G5U A26G U43C C46U, 0.02.
Take G5U G7A U28A: the self-cleavage is 0.06.
With G5U G30A G33U C37U the figure was 0.17; with G5U G17A U28A G36U G44C, 0.
Next, G5U G7U A12U A16C C23U G27A G29C U32C U38A: 0; G5U C8G A41U: 0.04; G5U C10A C18G G22C G44U: 0.03.
As for G5U C23A C42G U43G G44U, the self-cleavage is 0.01.
Consider G5C G33U A39C, for which the self-cleavage came to 0.18.
Regarding G5U C10U C45U, the self-cleavage was 0.12.
For G5U A11U U43A, the self-cleavage amounted to 0.01.
Next, G5U A26U G30C: 0.02; G5C G29C C31A G33U U38A: 0.21.
For the variant G5C G35C G44A, the self-cleavage came to 0.02.
With G5U G7C G27A C42A, the self-cleavage is 0.14.
For G5U C42G C46A, the self-cleavage was determined as 0.02.
For G5U C15G A24C G35C C42A, the self-cleavage was determined as 0.05.
Take G5U C18G U20A U43A: the self-cleavage amounted to 0.04.
Next, G5U A41C C42U: 0.01; G5U C8A G22C: 0.09; G5U A26U G30C G35C C45U: 0.02.
Next, G5U G17U A25G C37A G44C: 0.
G5U C15U C18G G27U C31U G35U: the self-cleavage stood at 0.03.
G5U C8G G22U A25G G29U G35U: the self-cleavage is 0.03.
With G5U A14U U32C A39C C46G the figure was 0.01; with G5U G21C U38C G40U, 0.03.
Next, A6C A16G C31G C37U U38G G40C: 0.01; G5U C13U C23G U28G: 0.02.
In the case of G5U A25C G36U A39G, the self-cleavage worked out at 0.01.
With G5U C13U C23G U38G, the self-cleavage was determined as 0.02.
Next, G5C G30U U34A G36C: 0.05.
Next, G5U A26C U28A C46G: 0.01; G5U A12C C18A A24C C37G: 0.02.
With G5U A11C G35C U38C the figure was 0.03; with G5U C8U C15A, 0.26; with G5U A11G C45G, 0.03.
G5C U9G A14G G19U G36A: the self-cleavage worked out at 0.04.
Next, G5U A14U A16C: 0.08.
Next, G5U G33U C45G: 0.02.
With G5U A24U G35U, the self-cleavage worked out at 0.12.
Turning to G5C U28G A39C, the self-cleavage was 0.02.
Take G5C G27U G30C G40A: the self-cleavage came to 0.11.
Next, G5U G21U G33C A41G: 0.09.
With G5U G7C G27C the figure was 0.07.
Next, G5U G22C G36C C45U: 0.02; G5U G27U C42G: 0.05; G5U C8A G36A G44U: 0.09.
With G5C U34C G44C, the self-cleavage came out at 0.04.
Regarding G5U A6G G40U, the self-cleavage turned out to be 0.12.
Turning to G5U G7C U9C G19C A26U C42U, the self-cleavage was 0.01.
With G5U A39G G44C the figure was 0.09; with G5U G7U C13A U34A, 0.23.
Next, G5U C10A A14U: 0.03; G5C U9C A11C A12U: 0.05; A6C A26U U28C C46A: 0.04.
With G5U A26G C46U the figure was 0.08; with G5U G7C C13U A16U, 0.02.
A6C A12C C13U: the self-cleavage was 0.05.
With G5U C10U A16C the figure was 0.02.
With G5U U28G G35C C42U G44A the figure was 0.04; with G5U C15A G19U U32A, 0.05.
With G5U C13U A26C the figure was 0.07; with G5U G7A C8U U20C, 0.47.
Regarding G5U G29U G30U G40A C46A, the self-cleavage is 0.02.
With G5U G33C C42U U43C the figure was 0.03; with G5U C8U G22U U32C, 0.08; with G5C U9C A41G, 0.05.
As for G5U C18U C23A, the self-cleavage stood at 0.04.
With G5U G21U G40A the figure was 0; with G5U C8U C37U, 0.07; with G5U C8A G21U, 0.6.
G5U G7C A25C G35U C42G: the self-cleavage came out at 0.03.
Take A6C C8A A11G A16U C46A: the self-cleavage was found to be 0.02.
Next, G5U C8U G27C C31U: 0.12; G5U C13G G36A: 0.2; G5U U9A G19A U20G G35C: 0.08.
Next, G5U U20A G33C: 0.04; G5U G7C C8A A12C G30C: 0.06.
Next, G5U G7U G21U A24U G44C: 0.16.
For the variant G5U A24G C37U, the self-cleavage came out at 0.06.
With G5U G30C G40A C46A the figure was 0.02; with G5U C8U U28A, 0.13.
Regarding G5U A11C G19A, the self-cleavage is 0.01.
Next, G5U A11C G30C: 0.02.
Next, G5U C13A G30C C31G: 0.04.
Next, G5C U20C U38C G40A: 0.04; G5U A26C G33U: 0.02.
Take G5U C13U A16G C37A: the self-cleavage came out at 0.01.
In the case of G5U U32C G36A, the self-cleavage came out at 0.06.
For G5U C8G C10U U28A, the self-cleavage was found to be 0.05.
With A6C A11C G29U G36A G44C C46A the figure was 0; with G5U U38G G44U, 0.02.
With G5U G19U G29U U43C the figure was 0.01.
With G5U C10U C23U A25G G35A the figure was 0.02; with G5U G7C C31G U32A, 0.03.
As to G5U A16U G17U G19C, the self-cleavage worked out at 0.03.
Next, G5U U9C U20A G40C: 0.03; A6C A16U U28G: 0.12; G5U C13A G17A C31A U32G: 0.03.
As for G5U C15U G30A, the self-cleavage amounted to 0.15.
Next, G5U G27U G33A G44C: 0.01.
With G5U G7A A12G C23G U34C C45A C46A the figure was 0.02.
Consider G5U A12U G40C, for which the self-cleavage came to 0.02.
For G5U C18A G22U C46A, the self-cleavage worked out at 0.03.
With G5U A41C G44U the figure was 0.04; with G5U C8A U9A, 0.47.
On to G5U C10A G29A C45G, for which the self-cleavage worked out at 0.02.
Next, G5U U32G U34G: 0.02.
In the case of A6C A24G C45A, the self-cleavage worked out at 0.09.
With G5U G19U G35U the figure was 0.07; with A6C A16C C23A, 0.15; with G5C U20A A24G G35U U38C, 0.
Next, G5U U9G A24G: 0.06; G5U A41G C42U: 0.03.
Next, G5U A41G C42A: 0.14; G5U C31A C42A C46A: 0.03.
On to G5U C8U C10U C15G C31A G36U U38G A39U, for which the self-cleavage was 0.02.
With A6C A25G G30U the figure was 0.59.
Turning to A6C A16G G30U, the self-cleavage was determined as 0.13.
Next, G5U G17A A41C: 0.07; G5U G7A C10G G21U: 0.01; G5U C15A G17A G30C U32A: 0.02.
Next, G5U G7A U38A: 0.07; G5U G7A U38C: 0.8; G5U G17A G21U G33A G40U: 0.02.
With G5U C10A A14C C45U the figure was 0.02; with G5U C15A G40U, 0.03.
Regarding G5U A12G C13G A14G, the self-cleavage was determined as 0.03.
With G5U A24U G44U the figure was 0.03; with G5U A6G A14C G17A, 0.14; with G5U U9A G17A, 0.11.
With G5U C18U G21U A25U the figure was 0.06; with G5U G7U C42U, 0.03.
Next, G5U G27U U32G A41U: 0.08.
Regarding G5U A14G G27U U43A, the self-cleavage turned out to be 0.02.
With G5U A11G U20G C42A the figure was 0.
Next, G5U G7U A24C G30C G33C U34A: 0.03; A6C A12C A25C C46U: 0.03.
With A6C A24G U38A C42A the figure was 0.03; with G5U A11C G36C, 0.02.
In the case of G5U C8A G17A C18U, the self-cleavage amounted to 0.1.
With G5U A6G A11C G22A the figure was 0.01; with A6C A16U A25U, 0.05; with G5U A6U G17C G21A C42U C45G, 0.02.
Turning to A6C A11C G35U, the self-cleavage was determined as 0.03.
Next, A6C A16G A41U C42G C45A: 0.01; G5U U20G A24C G44U: 0.03; G5U A11C G22U G29U U38A C46A: 0.
